From publication PMC11273436 (Antibiotics, 2024)

Experiments:
A549 cells = settings: for cytotoxicity (in words): A549 cells, peptide 48 h, CCK-8, tested 0.0625-40 µM, 3 independent experiments
H1N1 virus [1] = type: cell-based, influenza A virus A/Puerto Rico/8/1934 (PR8); settings: A549 cells, H1N1 MOI = 0.01, 24 h post-infection, 5 µM peptide, relative to HPRT
H1N1 virus [2] = type: cell-based, influenza A virus A/Puerto Rico/8/1934 (PR8); settings: supernatants of A549 cells, H1N1 MOI = 0.01, 5 µM peptide, plaques on MDCK cells

## KKWRKVIKKVVARYK-NH2 [Pc-2]
A549 cells
  cytotoxicity (in words): nontoxic

## RIKRFWPVVIRTVVAGYNLYRAIKKK-NH2 [Pc-1]
A549 cells
  concentration above which cytotoxicity is shown: above 10 µM

## VCVKKVRKLYKKIYKCR-NH2 (disulfide) [Pc-5]
H1N1 virus [1]
  inhibition of H1N1 virus infection (qRT-PCR): most robust antiviral response
H1N1 virus [2]
  production of viral particles (plaque formation assay): significantly reduced the production of viral particles
A549 cells
  cytotoxicity (in words): nontoxic

## VVKKVRKLYKKIYKR-NH2 [Pc-4]
A549 cells
  cytotoxicity (in words): nontoxic

Ends that are not written are not given here.
